# Inconclusive means that the source gave no clear call. Such entries were picked first, then a sample of the others. For some assays here: Potencies of inconclusive entries are doubtful fits and often do not repeat. For some assays here: A note “side channel” means that the fit belongs to a control or component signal, not to the main read-out. Active and inactive are the calls of the source. Unless noted, the call rests on the fitted dose curve; in most records, active means well fitted curve in the direction sought with a large enough effect; inconclusive means small, poorly fitted or top-dose-only effect, or another doubt; inactive means no such curve, though single readings can be large; an effect the other way counts as inactive or inconclusive.
# How the values were obtained:
# [1] = Cell Viability - SK-N-SH (AID 435; calls by dose curve;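 further: potency means the concentration at half of the fitted maximal effect; compound exposure lasted 40 h at 37 °C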); settings: SK-N-SH neuroblastoma cell viability qHTS
# How it was run: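 SK-N-SH human neuroblastoma cells (1500/well) were exposed to compounds in complete medium for 40 h at 37 °C, and intracellular ATP was then measured by CellTiter-Glo luminescence. AC50 was taken from Hill fits, normalized to DMSO and 100 uM tamoxifen.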
# [2] = Cell Viability - N2a (AID 540); settings: N2a mouse neuroblastoma cell viability; activity change, negative = cytotoxicity: at 92.2 µM (top of the series);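 further: plate controls were DMSO alone for no effect and tamoxifen control for full effect; nearly all actives have a fitted effect of over 45% in size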
# How it was run: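 First, 1500 N2a cells per well incubate 5 hr at 37 °C; next, compounds are added and incubated 40 hr at 37 °C; finally CellTiter-Glo is added and luminescence read after 20 min, with AC50 derived by Hill modeling.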
# [3] = Cell Viability - NIH 3T3 (AID 541); settings: NIH 3T3 cell viability, qHTS; activity change, negative = cytotoxicity: at 92.2 µM (top of the series);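 further: plate controls were DMSO alone for no effect and tamoxifen positive control for full effect; nearly all actives have a fitted effect of over 25% in size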
# How it was run: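 AC50 values reflect concentration-dependent loss of intracellular ATP in NIH 3T3 cells after 40 hr treatment in complete culture medium, quantified by luciferase-based luminescence.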
# [4] = Cell Viability - HUV-EC-C (AID 542); settings: HUV-EC-C endothelial cell viability, qHTS; further: potency means the concentration at half of the fitted maximal effect; nearly all actives have a fitted effect of over 35% in size
# How it was run: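 Decrease in cellular ATP, quantified by luciferase luminescence, reflects toxicity in normal human vascular endothelial HUV-EC-C cells given compound for 40 hr in complete culture medium. Values are AC50s from concentration-response curves.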
# [5] = Cell Viability - H-4-II-E (AID 543); settings: H-4-II-E rat hepatoma viability; series mostly up to 92.2 µM; further: potency means the concentration at half of the fitted maximal effect; nearly all actives have a fitted effect of over 35% in size
# How it was run: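 Here, cytotoxicity is measured in the rat hepatoma line H-4-II-E as loss of intracellular ATP after 40 hr compound treatment, detected by luciferase luminescence.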
# [6] = Cell Viability - SH-SY5Y (AID 544); settings: SH-SY5Y neuroblastoma cell viability; at 92.2 µM (top of the series); further: nearly all actives have a fitted effect of over 55% in size
# How it was run: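 Cytotoxicity is scored as a concentration-dependent fall in intracellular ATP in human SH-SY5Y cells treated 40 hr in complete culture medium. Potency is expressed as AC50 from a Hill equation fit.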
# [7] = Cell Viability - Mesenchymal (AID 546); settings: mesenchymal cells viability, qHTS; at 91.7 µM (top of the series);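 further: cells exposed to compound for 40 hours before reading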
# How it was run: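 AC50 values reflect the drop in intracellular ATP in a human kidney mesenchymal line derived from normal glomeruli. Treatment lasts 40 hr at 37 °C in complete medium, and the signal comes from CellTiter-Glo luminescence.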
# [8] = Cellular Toxicity (caspase-3) Jurkat (AID 655); settings: Jurkat caspase-3 activation, luminescence, DMSO = 0%, tamoxifen = 100%; at 92.2 µM (top of the series);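 further: cells exposed to compound for 16 h at 37 °C before reading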
# How it was run: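 Jurkat cells (5000/well) in complete medium were treated with compounds for 16 hr at 37 °C, then Caspase-Glo 3/7 luminescence was read after 20 min at room temperature. Data normalized to DMSO (basal) and 100 uM tamoxifen (100%); AC50 from Hill fit.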
# [9] = target: Glutaminase kidney isoform, mitochondrial (Homo sapiens) (UniProt O94925); assay: qHTS for Inhibitors of Glutaminase (GLS): LOPAC Validation (AID 624146); settings: glutaminase enzyme activity inhibition; series mostly up to 46.1 µM; further: potency means the concentration at half of the fitted maximal effect; nearly all actives have a fitted effect of over 60% in size
# Chain of UniProt O94925 (O94925 whole entry, looked up, canonical isoform): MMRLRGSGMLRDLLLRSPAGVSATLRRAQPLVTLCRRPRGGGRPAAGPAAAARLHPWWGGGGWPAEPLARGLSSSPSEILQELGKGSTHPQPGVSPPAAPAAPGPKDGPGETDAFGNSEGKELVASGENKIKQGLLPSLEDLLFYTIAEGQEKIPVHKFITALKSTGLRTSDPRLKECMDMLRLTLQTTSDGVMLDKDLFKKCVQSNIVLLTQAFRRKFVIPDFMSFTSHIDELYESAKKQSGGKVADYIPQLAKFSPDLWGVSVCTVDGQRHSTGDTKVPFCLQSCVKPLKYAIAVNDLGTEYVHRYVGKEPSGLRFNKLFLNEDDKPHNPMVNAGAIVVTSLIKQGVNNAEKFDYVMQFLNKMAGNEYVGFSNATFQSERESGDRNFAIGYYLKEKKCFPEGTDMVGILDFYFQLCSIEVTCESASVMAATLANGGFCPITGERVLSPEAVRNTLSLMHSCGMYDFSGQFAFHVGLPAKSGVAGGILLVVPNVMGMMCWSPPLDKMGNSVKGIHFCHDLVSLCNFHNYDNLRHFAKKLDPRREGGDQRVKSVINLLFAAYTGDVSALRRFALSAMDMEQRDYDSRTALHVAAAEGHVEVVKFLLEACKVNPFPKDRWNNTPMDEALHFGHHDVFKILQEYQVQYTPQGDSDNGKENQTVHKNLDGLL
# How it was run: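 Two-point fluorescence kinetic (t0, 30 min RT) for hKGA; glutamate detected via glutamate oxidase–HRP–Amplex Red. Substrate: 1 mM L-glutamine solution; buffer 45 mM KH2PO4, pH 8.2.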
# [10] = qHTS assay for small molecule disruptors of the mitochondrial membrane potential - 1 hr assay (AID 651754; calls by dose curve; further: on the % scale 0 is the no-effect control and ±100 the full control effect; nearly all actives have a fitted effect of over 35% in size); settings: ratio change, negative = depolarisation: at 92.2 µM (top of the series)
# How it was run: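 Steps: seed HepG2 cells and let attach overnight; pin-transfer compound or vehicle; incubate 1 hr at 37C; add Mito-MPS dye for 30 min; read two-channel fluorescence for monomer and aggregate forms.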
# [11] = target: ATP-dependent DNA helicase Q1 (Homo sapiens) (UniProt P46063); assay: qHTS Validation Assay for Inhibitors of RecQ-Like Dna Helicase 1 (RECQ1) (AID 2353); settings: recombinant RECQ1 helicase DNA unwinding assay; further: potency means the concentration at half of the fitted maximal effect
# Chain of UniProt P46063 (P46063 whole entry, looked up): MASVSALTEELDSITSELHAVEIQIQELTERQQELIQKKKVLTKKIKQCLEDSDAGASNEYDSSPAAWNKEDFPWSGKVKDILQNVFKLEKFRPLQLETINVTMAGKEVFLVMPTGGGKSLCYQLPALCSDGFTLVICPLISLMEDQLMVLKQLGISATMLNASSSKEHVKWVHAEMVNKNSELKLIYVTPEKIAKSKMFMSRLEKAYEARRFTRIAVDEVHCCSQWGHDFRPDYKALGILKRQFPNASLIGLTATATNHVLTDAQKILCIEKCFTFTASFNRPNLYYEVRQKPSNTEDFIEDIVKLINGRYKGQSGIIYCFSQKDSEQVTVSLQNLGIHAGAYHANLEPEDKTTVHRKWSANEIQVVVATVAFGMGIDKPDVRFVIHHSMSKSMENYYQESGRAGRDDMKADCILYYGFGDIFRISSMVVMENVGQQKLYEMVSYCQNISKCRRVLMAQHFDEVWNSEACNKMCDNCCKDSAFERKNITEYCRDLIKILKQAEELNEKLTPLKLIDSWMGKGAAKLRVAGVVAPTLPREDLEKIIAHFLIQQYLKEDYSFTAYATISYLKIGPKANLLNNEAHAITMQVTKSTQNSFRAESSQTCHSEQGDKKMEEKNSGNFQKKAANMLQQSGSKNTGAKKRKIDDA
# How it was run: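 50 nM RECQ1T1 preincubated 15 min with compound in Tris pH 8.0 buffer with MgCl2, DTT, Tween-20 and 2.5 ug/ml poly(dI-dC); started with 200 nM TAMRA/BHQ-2 forked duplex and 2 mM ATP. Unwinding read as fluorescence (525/598 nm), two reads 2 h apart.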
# [12] = Validation screen for small molecules that induce DNA re-replication in MCF 10A normal breast cells (AID 463097); settings: MCF 10A cells, DNA re-replication phenotype imaging; series mostly up to 46.1 µM; further: 0% is about no effect; nearly all actives have a fitted effect of over 60% in size
# How it was run: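 Readout: Hoechst nuclear fluorescence intensity, 405 ex / 500-530 em, by scanning plate imager; re-replication scored as increase in nuclei with elevated DNA content. Cells exposed to compound 48 hr, 37 C, 5% CO2 beforehand.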
# [13] = target: D(1A) dopamine receptor (Homo sapiens) (UniProt P21728); assay: HTS Assay for Allosteric Agonists of the Human D1 Dopamine Receptor: Primary Screen for Potentiators (AID 488982); settings: HEK293 T-REx D1 inducible cells, calcium flux, kinetic fluorescence; series mostly up to 8.37 µM; further: potency means the concentration at half of the fitted maximal effect
# Chain of UniProt P21728 (P21728 whole entry, looked up): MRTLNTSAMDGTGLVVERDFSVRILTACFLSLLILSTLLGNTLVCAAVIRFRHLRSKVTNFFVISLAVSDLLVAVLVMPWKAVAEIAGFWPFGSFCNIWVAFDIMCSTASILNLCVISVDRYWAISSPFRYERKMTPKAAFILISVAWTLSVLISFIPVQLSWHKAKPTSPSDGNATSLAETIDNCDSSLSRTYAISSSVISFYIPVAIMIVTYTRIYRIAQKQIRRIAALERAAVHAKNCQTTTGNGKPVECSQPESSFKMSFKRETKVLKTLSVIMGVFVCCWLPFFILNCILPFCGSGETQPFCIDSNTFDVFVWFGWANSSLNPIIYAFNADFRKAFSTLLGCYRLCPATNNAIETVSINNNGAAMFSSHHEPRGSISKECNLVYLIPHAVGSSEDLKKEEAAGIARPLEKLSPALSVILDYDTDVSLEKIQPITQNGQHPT
# How it was run: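 Calcium flux in an inducible, force-coupled HEK293 Trex D1 line (overnight at 30 C): agonist mode is the 180 s kinetic read after compound; potentiator mode is the following 180 s read after dopamine at EC20.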
# [14] = target: Estrogen receptor (Homo sapiens) (UniProt P03372); assay: qHTS assay for small molecule agonists of estrogen receptor alpha signaling (AID 588514; calls by dose curve;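 further: 0% = vehicle only and 100% = reference agonist; nearly all actives have a fitted effect of over 70% in size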); settings: ER-alpha-UAS-bla HEK293, beta-lactamase ratio, 18 h; activation: at 76.8 µM (top of the series), percent of full estradiol response, vehicle zero
# Chain of UniProt P03372 (P03372 whole entry, looked up): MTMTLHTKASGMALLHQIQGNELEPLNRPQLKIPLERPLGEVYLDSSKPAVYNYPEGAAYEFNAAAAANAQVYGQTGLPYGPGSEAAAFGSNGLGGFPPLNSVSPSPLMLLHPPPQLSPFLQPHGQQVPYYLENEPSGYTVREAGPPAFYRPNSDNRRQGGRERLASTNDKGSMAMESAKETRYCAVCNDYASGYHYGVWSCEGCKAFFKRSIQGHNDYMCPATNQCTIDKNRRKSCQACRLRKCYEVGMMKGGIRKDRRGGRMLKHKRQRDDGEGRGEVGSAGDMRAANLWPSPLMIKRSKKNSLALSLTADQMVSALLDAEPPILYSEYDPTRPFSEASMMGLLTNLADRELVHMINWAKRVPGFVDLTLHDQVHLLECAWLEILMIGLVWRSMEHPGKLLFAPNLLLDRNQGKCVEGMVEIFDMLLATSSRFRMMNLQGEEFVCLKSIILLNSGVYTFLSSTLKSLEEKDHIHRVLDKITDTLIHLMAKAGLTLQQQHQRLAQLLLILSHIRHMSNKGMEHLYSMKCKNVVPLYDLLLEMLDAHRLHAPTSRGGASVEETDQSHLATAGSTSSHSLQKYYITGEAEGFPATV
# How it was run: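 Reporter-gene assay. […] controls beta-lactamase in HEK 293 GripTite cells; after 18 hrs with compound, CCF4 substrate is added for 2 hrs and fluorescence is read.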
# [15] = target: Bile acid receptor (Homo sapiens) (UniProt Q96RI1); assay: qHTS assay for small molecule agonists of farnesoid X receptor signaling (AID 588527; calls by dose curve; further: potency means the concentration at half of the fitted maximal effect); settings: HEK293T FXR-UAS-bla, beta-lactamase ratio, 16 h; activation: active compounds read high
# How it was run: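 Read-out: beta-lactamase reporter fluorescence with CCF4 substrate in GeneBLAzer FXR-UAS-bla HEK293T cells, after 16 h compound exposure at 37 C. Response scaled between DMSO basal (0%) and chenodeoxycholic acid at 100 uM (100%).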
# [16] = target: Glucocorticoid receptor (Homo sapiens) (UniProt P04150); assay: qHTS assay for small molecule agonists of glucocorticoid receptor signaling (AID 588532; active means well fitted curve in the direction sought with a large enough effect in the signal ratio, with a control signal flat; inconclusive means small, poorly fitted or top-dose-only effect, or a change in a side signal; inactive means no such curve, though single readings can be large or run the other way; the % refers to the signal ratio; further: potency means the concentration at half of the fitted maximal effect); settings: HeLa MMTV-bla, beta-lactamase ratio, agonist, 18 h; activation: active compounds read high, percent of dexamethasone control, DMSO zero
# How it was run: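 Quantitative HTS using CellSensor MMTV-bla HeLa cells in charcoal/dextran-treated serum; compounds tested up to 92 uM. After 18 h at 37 C, CCF4 dye reported reporter induction.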
# [17] = target: Vitamin D3 receptor (Homo sapiens) (UniProt P11473); assay: qHTS assay for small molecule agonists of vitamin D receptor signaling (AID 588543; calls by dose curve; further: potency means the concentration at half of the fitted maximal effect); settings: HEK293T VDR-UAS-bla, beta-lactamase ratio, 16 h; activation: at 76.8 µM (top of the series)
# How it was run: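 GeneBLAzer VDR-UAS-bla HEK293T cells in 2% charcoal-stripped FBS medium were dosed with compound titrations for 16 h at 37 °C; CCF4 β-lactamase readout (405 nm ex, 460/530 nm em). EC50 and efficacy from Hill fits, normalized to 50 nM calcitriol (100%) and DMSO (0%).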
# [18] = target: Lysine-specific demethylase 5B (Homo sapiens) (UniProt Q9UGL1); assay: Optimization screen for KDM5B Histone Demethylases FDH coupled qHTS against the LOPAC library (AID 1347166); settings: KDM5B demethylation, FDH-coupled NADH fluorescence (FDH is formaldehyde dehydrogenase); series mostly up to 57.5 µM; further: potency means the concentration at half of the fitted maximal effect
# Chain of UniProt Q9UGL1 (Q9UGL1 whole entry, looked up): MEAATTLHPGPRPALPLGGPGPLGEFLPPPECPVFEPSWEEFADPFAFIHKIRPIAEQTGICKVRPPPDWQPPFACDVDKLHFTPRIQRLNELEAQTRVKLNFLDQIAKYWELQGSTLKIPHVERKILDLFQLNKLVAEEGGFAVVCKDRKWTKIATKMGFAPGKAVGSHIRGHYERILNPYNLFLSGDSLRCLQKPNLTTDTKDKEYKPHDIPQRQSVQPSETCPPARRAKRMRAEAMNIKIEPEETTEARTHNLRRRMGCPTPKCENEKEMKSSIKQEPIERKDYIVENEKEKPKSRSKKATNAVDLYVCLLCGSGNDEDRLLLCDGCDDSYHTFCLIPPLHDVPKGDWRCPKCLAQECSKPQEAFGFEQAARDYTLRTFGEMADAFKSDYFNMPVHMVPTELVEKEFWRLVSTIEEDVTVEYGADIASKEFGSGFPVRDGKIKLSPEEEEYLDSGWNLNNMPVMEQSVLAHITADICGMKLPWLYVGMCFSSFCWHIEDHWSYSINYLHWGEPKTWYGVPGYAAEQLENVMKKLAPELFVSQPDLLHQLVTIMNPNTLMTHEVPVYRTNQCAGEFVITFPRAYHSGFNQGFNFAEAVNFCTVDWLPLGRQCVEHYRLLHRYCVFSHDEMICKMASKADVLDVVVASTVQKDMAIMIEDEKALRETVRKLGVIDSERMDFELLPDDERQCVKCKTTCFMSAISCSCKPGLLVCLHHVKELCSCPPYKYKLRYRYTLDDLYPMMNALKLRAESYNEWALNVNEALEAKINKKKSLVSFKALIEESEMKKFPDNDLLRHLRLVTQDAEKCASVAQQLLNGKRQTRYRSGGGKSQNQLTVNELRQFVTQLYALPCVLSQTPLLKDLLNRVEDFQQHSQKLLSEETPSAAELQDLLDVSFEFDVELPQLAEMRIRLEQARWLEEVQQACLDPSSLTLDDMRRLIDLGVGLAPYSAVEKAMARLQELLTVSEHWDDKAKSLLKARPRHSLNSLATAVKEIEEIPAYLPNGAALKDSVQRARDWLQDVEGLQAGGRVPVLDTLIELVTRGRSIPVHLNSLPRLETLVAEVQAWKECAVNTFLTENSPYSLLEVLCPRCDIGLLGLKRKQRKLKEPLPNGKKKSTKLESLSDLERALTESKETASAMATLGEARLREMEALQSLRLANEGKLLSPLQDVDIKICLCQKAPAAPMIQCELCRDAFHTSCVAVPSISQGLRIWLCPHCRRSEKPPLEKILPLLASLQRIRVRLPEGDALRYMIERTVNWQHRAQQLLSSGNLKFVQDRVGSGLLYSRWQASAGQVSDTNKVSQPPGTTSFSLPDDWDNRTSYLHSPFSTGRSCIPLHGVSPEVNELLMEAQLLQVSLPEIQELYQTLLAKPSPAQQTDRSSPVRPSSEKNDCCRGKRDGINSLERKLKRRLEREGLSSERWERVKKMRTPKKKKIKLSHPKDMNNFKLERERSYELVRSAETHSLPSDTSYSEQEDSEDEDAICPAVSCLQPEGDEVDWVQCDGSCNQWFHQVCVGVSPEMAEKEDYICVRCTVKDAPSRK
# How it was run: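 KDM5BDeltaAP (200nM final) preincubated 10 min with compound, then 12.5uM H3K4Me3, 25uM a-ketoglutarate, ascorbate, Fe(II), NAD+ and FDH added; 50mM HEPES pH 7.5, 0.01% Tween-20. NADH fluorescence (340/450 nm) change over 30 min, room temperature.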
# [19] = Cell Viability - LYMP2-004 (AID 966); settings: LYMP2-004 lymphoblastoid cell viability, qHTS; series mostly up to 92.2 µM;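 further: plate controls were DMSO only for no effect and tetraoctylammonium bromide control for full effect; nearly all actives have a fitted effect of over 65% in size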
# How it was run: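 Acute toxicity is scored as a concentration-dependent drop in intracellular ATP, quantified by luciferase luminescence, in human lymphoblastoid cells exposed to compound for 24 hr. AC50 derives from Hill-equation modelling.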
# [20] = target: Calcium and integrin-binding protein 1 (Homo sapiens) (UniProt Q99828); assay: Confirmatory qHTS for Identification of Calcium Integrin Binding Protein 1 (CIB1) Competitor (AID 1508617); settings: CIB1 binding competition assay, biochemical qHTS; series mostly up to 114 µM; further: potency means the concentration at half of the fitted maximal effect; nearly all actives have a fitted effect of over 65% in size
# Chain of UniProt Q99828 (Q99828 whole entry, looked up): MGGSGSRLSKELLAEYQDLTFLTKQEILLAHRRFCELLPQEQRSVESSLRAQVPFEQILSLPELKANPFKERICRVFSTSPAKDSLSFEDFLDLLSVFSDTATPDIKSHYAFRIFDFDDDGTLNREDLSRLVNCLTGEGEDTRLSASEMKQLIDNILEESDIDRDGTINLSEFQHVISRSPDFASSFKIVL
# How it was run: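 Confirmatory qHTS measures displacement of a FITC-alphaIIb peptide (100 nM) from CIB1-GST (1 uM) by fluorescence polarization. Calcium-containing HEPES buffer, pH 7.4; two 15 min room-temperature incubations.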
# Tags describe the fitted curve by direction and shape or compound fluorescence and quenching.
smiles,measurement,setting,value
CN(C)CCC=C1c2ccccc2CCc2ccccc21,Potency,[1],inconclusive: 105 µM [partial curve]
same,"activity change, negative = cytotoxicity",[2],inconclusive: -50.1%
same,"activity change, negative = cytotoxicity",[3],inconclusive: -53.2%
same,Potency,[4],"inconclusive: 39.8 µM [falling, partial curve]"
same,Potency,[5],"inconclusive: 39.8 µM [falling, partial curve]"
same,"viability change, negative = cytotoxic",[6],inconclusive: -54%
same,"activity change, negative = cytotoxicity",[7],inconclusive: -40.3%
same,caspase-3 activation,[8],inconclusive: 66.6%
same,Potency,[9],"inconclusive: 2.51 µM [inhibitor, partial curve, poor fit]"
same,"ratio change, negative = depolarisation",[10],inconclusive: 26.6%
CC(=O)N[C@@H](CS)C(=O)O,Potency,[11],"inconclusive: 1.41 µM [inhibitor, full curve]"
same,Potency,[12],inactive
same,Potency,[13],"inconclusive: 5.8 µM [activator, single point]"
same,activation,[14],inconclusive: 61.7%
same,Potency,[15],"inconclusive: 28.2 µM [side channel, falling, partial curve, poor fit]"
same,Potency,[16],"inconclusive: 0.0028 µM [side channel, falling, full curve, poor fit]"
same,Potency,[17],"inconclusive: 1.12 µM [side channel, falling, full curve, poor fit]"
same,Potency,[18],"inconclusive: 15.8 µM [inhibitor, partial curve, poor fit]"
Brc1ccccc1-c1ccccc1,Potency,[19],inactive
OCCOCCN1CCN(C(c2ccccc2)c2ccc(Cl)cc2)CC1 (stereo not given),Potency,[20],"inconclusive: 35.5 µM [inhibitor, partial curve]"
